No constants are given. Whether binding was seen depends on the method and setting. Some results given as binding are weak or reduced against the parent protein; the word gives no strength.

Sequences of proteins named here, by UniProt entry; tags and fusion partners are left off. A change or cut given only in a name is not applied to a line headed by its entry. A line that says so, or that is headed by a name, gives the form on record, which may keep a tag or linker.
UniProt P0A6F5: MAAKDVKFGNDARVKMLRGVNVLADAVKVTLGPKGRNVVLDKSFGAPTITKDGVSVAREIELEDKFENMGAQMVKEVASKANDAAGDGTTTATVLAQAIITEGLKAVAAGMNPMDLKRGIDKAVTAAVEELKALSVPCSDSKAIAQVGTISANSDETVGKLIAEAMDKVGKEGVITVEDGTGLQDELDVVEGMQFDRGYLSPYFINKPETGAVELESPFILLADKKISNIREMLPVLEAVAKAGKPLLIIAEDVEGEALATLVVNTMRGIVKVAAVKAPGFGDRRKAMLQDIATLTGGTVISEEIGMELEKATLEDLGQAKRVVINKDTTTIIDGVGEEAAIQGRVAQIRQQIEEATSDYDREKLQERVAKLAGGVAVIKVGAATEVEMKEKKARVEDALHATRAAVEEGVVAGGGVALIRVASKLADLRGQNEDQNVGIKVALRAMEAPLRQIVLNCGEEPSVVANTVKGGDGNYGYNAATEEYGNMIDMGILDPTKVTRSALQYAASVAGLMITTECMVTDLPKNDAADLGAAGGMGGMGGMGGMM
frataxin clinical variant FXN-p.Asp122Tyr, conserved C-terminal domain (amino acids 91-210) (Q16595, form named): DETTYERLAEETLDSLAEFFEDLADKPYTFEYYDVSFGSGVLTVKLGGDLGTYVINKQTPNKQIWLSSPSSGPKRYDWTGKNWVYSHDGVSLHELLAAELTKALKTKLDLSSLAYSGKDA
frataxin clinical variant FXN-p.Ile154Phe, conserved C-terminal domain (amino acids 91-210) (Q16595, form named): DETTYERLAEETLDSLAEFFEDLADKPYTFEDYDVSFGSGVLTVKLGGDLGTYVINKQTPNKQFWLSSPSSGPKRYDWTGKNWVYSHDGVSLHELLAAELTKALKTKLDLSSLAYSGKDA

Drawing on paper PMC4279165, this text covers binding for two substances.

Assay [1] concerns the target GroEL chaperonin, high-affinity nucleotide-free form, immobilised on NHS-Sepharose Fast Flow beads (UniProt P0A6F5). Nature of the assay: solid phase GroEL partitioning assay (depletion of soluble protein by GroEL beads, UV absorbance); 2 µM GroEL beads, 2 µM frataxin mutant, 45 °C, 1 M urea, with 1 M TMAO, 60 min; both purified.
For assay [2] the target is unchanged. Nature of the assay: solid phase GroEL partitioning assay (depletion of soluble protein by GroEL beads, UV absorbance); 2 µM GroEL beads, 2 µM frataxin mutant, 45 °C, 1 M urea, with 4 M glycerol, 60 min; both purified.
Assay [3] has the same target. The assay can be described thus: solid phase GroEL partitioning assay (depletion of soluble protein by GroEL beads, UV absorbance Abs 280-Abs 350 nm or SDS-PAGE); GroEL immobilised on Sepharose beads, estimated 2 µM oligomer; 2 µM frataxin in solution; 45 °C; buffer A (50 mM Tris, 50 mM KCl, 5 mM MgCl2, 0.5 mM EDTA, 1 mM DTT, pH 7.5) with 1 M urea; constant mixing; both purified.

For assay [4] the target is unchanged. Nature of the assay: condition: only at 25 °C (2 µM frataxin, 2 µM immobilized GroEL oligomer); solid phase GroEL partitioning assay (depletion of soluble protein by GroEL beads, UV absorbance Abs 280-Abs 350 nm or SDS-PAGE); GroEL immobilised on Sepharose beads, estimated 2 µM oligomer; 2 µM frataxin in solution; 25 °C; buffer A (50 mM Tris, 50 mM KCl, 5 mM MgCl2, 0.5 mM EDTA, 1 mM DTT, pH 7.5) with 1 M urea; constant mixing; both purified.

Assay [5] shares this target. The assay can be described thus: condition: only at 37 °C (2 µM frataxin, 2 µM immobilized GroEL oligomer); solid phase GroEL partitioning assay (depletion of soluble protein by GroEL beads, UV absorbance Abs 280-Abs 350 nm or SDS-PAGE); GroEL immobilised on Sepharose beads, estimated 2 µM oligomer; 2 µM frataxin in solution; 37 °C; buffer A (50 mM Tris, 50 mM KCl, 5 mM MgCl2, 0.5 mM EDTA, 1 mM DTT, pH 7.5) with 1 M urea; constant mixing; both purified.

As to “frataxin clinical variant FXN-p.Asp122Tyr, conserved C-terminal domain (amino acids 91-210) (from UniProt Q16595 91-210) (domain or fragment)”, the binding entry in assay [1] is “no binding (condition: with 1 M TMAO)”; in assay [2], “no binding (condition: with 4 M glycerol)”; in assay [3], “binds”; in assay [4] it was “no binding”; in assay [5], “no binding”.

As for “frataxin clinical variant FXN-p.Ile154Phe, conserved C-terminal domain (amino acids 91-210) (from UniProt Q16595 91-210) (domain or fragment)”, the binding entry in assay [3] is listed as “binds”; in assay [4] it was “no binding”; in assay [5] it was “no binding”.
